Test [1] deals with Tlp^sig _(2.3.4), the cytoplasmic signalling domain of Tlp3 (Cj1564, CcmL), residues 517-662 (C. jejuni NCTC11168-O) (UniProt Q0P864). In words: two-hybrid; yeast two-hybrid, GAL-4 DNA-BD (bait) and AD (target) fusions co-transformed; growth on high and intermediate stringency media; both combinations of fusions tested.
The target in test [2] is T1, CheA (C. jejuni NCTC11168-O) (UniProt Q0PBM2).
T1 sequence: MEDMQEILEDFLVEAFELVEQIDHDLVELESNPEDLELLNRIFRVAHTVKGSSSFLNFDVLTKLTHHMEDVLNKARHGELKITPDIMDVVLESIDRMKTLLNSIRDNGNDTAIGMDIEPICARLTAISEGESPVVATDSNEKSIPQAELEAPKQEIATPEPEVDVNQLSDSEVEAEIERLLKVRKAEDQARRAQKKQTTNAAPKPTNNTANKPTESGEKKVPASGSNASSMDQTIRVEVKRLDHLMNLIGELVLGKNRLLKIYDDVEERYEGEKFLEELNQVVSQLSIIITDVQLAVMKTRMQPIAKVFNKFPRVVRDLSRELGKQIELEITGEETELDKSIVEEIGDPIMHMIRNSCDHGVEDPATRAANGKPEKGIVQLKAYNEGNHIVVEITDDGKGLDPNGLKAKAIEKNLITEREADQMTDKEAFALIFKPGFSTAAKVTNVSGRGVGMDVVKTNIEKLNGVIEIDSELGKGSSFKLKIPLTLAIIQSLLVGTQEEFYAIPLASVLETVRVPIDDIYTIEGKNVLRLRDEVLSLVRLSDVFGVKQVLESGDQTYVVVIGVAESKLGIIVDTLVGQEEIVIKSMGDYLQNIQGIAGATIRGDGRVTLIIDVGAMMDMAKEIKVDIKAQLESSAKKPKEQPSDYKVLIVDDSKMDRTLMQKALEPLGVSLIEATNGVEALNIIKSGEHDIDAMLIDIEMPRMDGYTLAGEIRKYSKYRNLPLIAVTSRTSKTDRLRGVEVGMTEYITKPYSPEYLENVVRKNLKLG
The description is as above.

Protein sequences, listed by entry. Tags and fused reporters are not part of them. Residues count along the entry.
UniProt Q0P864, residues 517-662: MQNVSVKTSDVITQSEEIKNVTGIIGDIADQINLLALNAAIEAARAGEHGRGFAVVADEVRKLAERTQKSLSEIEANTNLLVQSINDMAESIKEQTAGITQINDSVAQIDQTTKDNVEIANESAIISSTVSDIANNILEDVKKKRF
UniProt P0C635: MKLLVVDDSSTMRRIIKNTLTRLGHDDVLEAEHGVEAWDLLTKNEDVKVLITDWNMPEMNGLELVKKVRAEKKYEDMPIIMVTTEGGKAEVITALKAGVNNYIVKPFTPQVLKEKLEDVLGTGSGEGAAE

For test [3], the target named is T2, CheV (C. jejuni NCTC11168-O) (UniProt Q0PBM1).
T2 sequence: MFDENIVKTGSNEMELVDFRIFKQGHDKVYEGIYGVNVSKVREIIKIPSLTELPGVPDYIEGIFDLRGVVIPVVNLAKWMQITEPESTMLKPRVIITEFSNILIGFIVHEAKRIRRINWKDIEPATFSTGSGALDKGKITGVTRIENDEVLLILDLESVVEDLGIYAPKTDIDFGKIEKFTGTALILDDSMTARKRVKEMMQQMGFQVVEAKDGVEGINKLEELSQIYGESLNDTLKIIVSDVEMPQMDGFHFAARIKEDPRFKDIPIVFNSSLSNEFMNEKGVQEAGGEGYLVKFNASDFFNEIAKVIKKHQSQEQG
Described as above.

Test [4] concerns the target CheY (C. jejuni NCTC11168-O) (UniProt P0C635). Described as above.
The target in test [5] is T2, CheV (C. jejuni NCTC11168-O). In words: yeast three-hybrid; GAL-4 BD and AD fusions with native CheW as conditionally expressed third protein (pBrTlp234IWII, pBrVIWII); expression of CheW induced; growth on His deficient media.
The target is the same in test [6]. In words: yeast three-hybrid; GAL-4 BD and AD fusions with native CheW as conditionally expressed third protein (pBrTlp234IWII, pBrVIWII); expression of CheW repressed; growth on His deficient media.
Test [7] has as its target Tlp^sig _(2.3.4), the cytoplasmic signalling domain of Tlp3 (Cj1564, CcmL), residues 517-662 (C. jejuni NCTC11168-O) (UniProt Q0P864). As to the kind of experiment: yeast three-hybrid; GAL-4 BD and AD fusions with native CheV as conditionally expressed third protein (pBrTlp234IVII, pBrWIVII); expression of CheV induced; growth on His deficient media.
Test [8] shares this target. As to the kind of experiment: yeast three-hybrid; GAL-4 BD and AD fusions with native CheW as conditionally expressed third protein (pBrTlp234IWII, pBrVIWII); expression of CheW induced; growth on His deficient media.
The target is the same in test [9]. In words: yeast three-hybrid; GAL-4 BD and AD fusions with native CheV as conditionally expressed third protein (pBrTlp234IVII, pBrWIVII); expression of CheV repressed; growth on His deficient media.
The target is the same in test [10]. In words: yeast three-hybrid; GAL-4 BD and AD fusions with native CheW as conditionally expressed third protein (pBrTlp234IWII, pBrVIWII); expression of CheW repressed; growth on His deficient media.

From PMC3879368, “Characterisation of a Multi-ligand Binding Chemoreceptor CcmL (Tlp3) of Campylobacter jejuni” (PLoS Pathogens, 2014) come the findings set out here.

Results are given in words; binding and its absence hold for the method and conditions named. Some binding calls cover weakened binding; strength is not graded here.

With CheY (from UniProt P0C635 1-130), in test [1], the binding entry was “no binding”.

As for “Tlp^sig _(2.3.4), the cytoplasmic signalling domain of Tlp3 (Cj1564, CcmL), residues 517-662 (from UniProt Q0P864 517-662) (domain or fragment)”, the binding entry was “no binding” in test [2]; “binds” in [3]; “no binding” in test [4]; “binds” in test [5]; “binds” in test [6].

B1: CheA (enzyme, UniProt Q0PBM2 1-769)
chain: MEDMQEILEDFLVEAFELVEQIDHDLVELESNPEDLELLNRIFRVAHTVKGSSSFLNFDVLTKLTHHMEDVLNKARHGELKITPDIMDVVLESIDRMKTLLNSIRDNGNDTAIGMDIEPICARLTAISEGESPVVATDSNEKSIPQAELEAPKQEIATPEPEVDVNQLSDSEVEAEIERLLKVRKAEDQARRAQKKQTTNAAPKPTNNTANKPTESGEKKVPASGSNASSMDQTIRVEVKRLDHLMNLIGELVLGKNRLLKIYDDVEERYEGEKFLEELNQVVSQLSIIITDVQLAVMKTRMQPIAKVFNKFPRVVRDLSRELGKQIELEITGEETELDKSIVEEIGDPIMHMIRNSCDHGVEDPATRAANGKPEKGIVQLKAYNEGNHIVVEITDDGKGLDPNGLKAKAIEKNLITEREADQMTDKEAFALIFKPGFSTAAKVTNVSGRGVGMDVVKTNIEKLNGVIEIDSELGKGSSFKLKIPLTLAIIQSLLVGTQEEFYAIPLASVLETVRVPIDDIYTIEGKNVLRLRDEVLSLVRLSDVFGVKQVLESGDQTYVVVIGVAESKLGIIVDTLVGQEEIVIKSMGDYLQNIQGIAGATIRGDGRVTLIIDVGAMMDMAKEIKVDIKAQLESSAKKPKEQPSDYKVLIVDDSKMDRTLMQKALEPLGVSLIEATNGVEALNIIKSGEHDIDAMLIDIEMPRMDGYTLAGEIRKYSKYRNLPLIAVTSRTSKTDRLRGVEVGMTEYITKPYSPEYLENVVRKNLKLG
As to B1, the binding entry in [1] was “no binding”.

B2: CheV (protein, UniProt Q0PBM1 1-318)
chain: MFDENIVKTGSNEMELVDFRIFKQGHDKVYEGIYGVNVSKVREIIKIPSLTELPGVPDYIEGIFDLRGVVIPVVNLAKWMQITEPESTMLKPRVIITEFSNILIGFIVHEAKRIRRINWKDIEPATFSTGSGALDKGKITGVTRIENDEVLLILDLESVVEDLGIYAPKTDIDFGKIEKFTGTALILDDSMTARKRVKEMMQQMGFQVVEAKDGVEGINKLEELSQIYGESLNDTLKIIVSDVEMPQMDGFHFAARIKEDPRFKDIPIVFNSSLSNEFMNEKGVQEAGGEGYLVKFNASDFFNEIAKVIKKHQSQEQG
As for B2, the binding result in test [1], in test [7], in test [8], in [9] and in test [10] was “binds” throughout.
